Reference: article PMC4336329 (PLoS ONE, 2015)
Out of some 310,000 compounds screened, about 14,000 (4.5%) showed an effect of 50% or more. The effect is printed as a negative number. This is one part of the list.

Target: human ether-à-go-go-related gene (hERG) potassium channel (human, UniProt Q12809)
Assay: primary screen, population patch clamp on CHO cells stably expressing hERG
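Further: peak tail current of the secondary pulse compared with the same well before compound.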

human ether-à-go-go-related gene (hERG) potassium channel, sequence (Q12809 whole entry, looked up): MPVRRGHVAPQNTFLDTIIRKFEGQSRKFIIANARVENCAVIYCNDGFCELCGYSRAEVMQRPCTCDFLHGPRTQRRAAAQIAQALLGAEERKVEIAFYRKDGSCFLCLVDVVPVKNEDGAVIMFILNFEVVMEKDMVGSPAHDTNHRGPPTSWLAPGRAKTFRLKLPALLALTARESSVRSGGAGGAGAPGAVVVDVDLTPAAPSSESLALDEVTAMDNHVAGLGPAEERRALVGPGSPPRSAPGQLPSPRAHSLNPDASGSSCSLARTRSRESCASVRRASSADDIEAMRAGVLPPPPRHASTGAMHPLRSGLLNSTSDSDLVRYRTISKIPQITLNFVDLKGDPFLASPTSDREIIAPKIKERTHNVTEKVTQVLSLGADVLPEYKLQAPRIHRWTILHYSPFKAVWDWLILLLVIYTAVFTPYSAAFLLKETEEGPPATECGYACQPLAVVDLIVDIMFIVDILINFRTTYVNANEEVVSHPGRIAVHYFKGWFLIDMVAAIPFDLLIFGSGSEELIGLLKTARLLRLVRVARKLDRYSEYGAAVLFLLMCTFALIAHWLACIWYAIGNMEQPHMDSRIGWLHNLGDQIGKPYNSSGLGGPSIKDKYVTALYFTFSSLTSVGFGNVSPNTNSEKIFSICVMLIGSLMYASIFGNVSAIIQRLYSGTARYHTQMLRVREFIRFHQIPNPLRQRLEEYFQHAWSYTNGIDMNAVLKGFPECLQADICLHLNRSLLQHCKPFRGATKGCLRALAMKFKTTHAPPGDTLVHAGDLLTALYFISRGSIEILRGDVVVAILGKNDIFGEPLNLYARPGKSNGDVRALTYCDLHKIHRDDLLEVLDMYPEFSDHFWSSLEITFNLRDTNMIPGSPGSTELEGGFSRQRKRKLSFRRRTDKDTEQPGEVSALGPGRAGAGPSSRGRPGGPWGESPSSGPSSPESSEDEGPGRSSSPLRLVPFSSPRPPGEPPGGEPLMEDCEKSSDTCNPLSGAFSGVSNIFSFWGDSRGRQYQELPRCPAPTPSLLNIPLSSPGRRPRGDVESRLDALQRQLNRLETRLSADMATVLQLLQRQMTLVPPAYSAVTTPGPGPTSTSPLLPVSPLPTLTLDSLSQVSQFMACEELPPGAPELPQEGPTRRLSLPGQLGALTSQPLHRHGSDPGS

Row | Structure (SMILES) | hERG current change (%, negative = inhibition) at 10uM [%]
1 | Clc1ccccc1OCc1nn[nH]n1 | 16.3
2 | CCNC(=O)N(C(=O)NCC)n1c(C)nnc1C | 9.19
3 | COc1ccccc1CNC(=O)CN1C(=O)NC(C)(c2ccc(C(C)(C)C)cc2)C1=O (centres unmarked) | 20.5
4 | CC1(C)Cc2ccccc2C(/C(=N/O)C(N)=O)=N1 | -14.4
5 | N#Cc1c(/N=C/c2ccc(O)cc2O)sc2c1C1CCN2CC1 | -12.9
6 | COc1ccccc1C1(O)C(=O)Nc2ccccc21 (centres unmarked) | 23.6
7 | CCS(=O)(=O)NCCc1ccc(OC)c(OC)c1 | 6.13
8 | CCOC(=O)c1cc(NC(=O)c2cccnc2)ccc1N1CCOCC1 | 9.6
9 | Cc1ccc(S(=O)(=O)/N=C(/c2ccccc2)N2CCOCC2)c(C)c1 | 11.1
10 | COCCNc1nc2c(c(=O)n(C)c(=O)n2C)n1Cc1cccc(C)c1 | -1.87
11 | Cn1nc(CC(=O)Nc2ncc(Br)s2)c2ccccc2c1=O | 11.4
12 | N#CC1(Cc2ccc(Cl)cc2)c2ccccc2C=CN1C(=O)c1ccccc1 (centres unmarked) | 6.67
13 | C[N+]1(CC(=O)Nc2ccccc2Cl)CCN(C(=O)c2cccs2)CC1.[Cl-] | 4.19
14 | O=C(Nc1cccc(C(=O)Nc2ccc(Cl)cn2)c1)c1ccccc1 | 11.3
15 | O=C(NC1CC1)c1nc(Cn2ccc([N+](=O)[O-])n2)no1 | 10
16 | C=CCn1c(SCC(=O)NCCCO)nc2sc3c(c2c1=O)CCC3 | 5.06
17 | Cc1n[nH]c(C)c1NC(=O)c1cc([N+](=O)[O-])ccc1Cl | 17.5
18 | CCc1cc2cc(C)ccc2nc1SCC(=O)Nc1cc(C)on1 | -2.05
19 | COc1ccc(-n2ncc3c(N4CCC(C(N)=O)CC4)ncnc32)cc1 | -11.5
20 | C=CC[C@]12C[C@@H](OC)C(=O)C=C1O[C@@H](c1ccc(OC)c(OC)c1)[C@H]2C | 14.5
21 | O=C(Nc1ccc(Cl)cc1[N+](=O)[O-])c1ccc2c(c1)OCCO2 | -4.51
22 | Cc1nn2c(=O)cc(CSCC(=O)Nc3ccccc3Cl)nc2s1 | 17.3
23 | CCCCC(=O)Nc1cccc(NC(=S)NC(C)=O)c1 | -9.87
24 | Cc1ccc(CNc2ccc(CNc3ncn[nH]3)cc2)cc1 | 4.9
25 | COc1ccccc1NC(=O)CCSc1nc(C)cc(C)n1 | 16.4
26 | O=C1OC(c2ccccc2)=C/C1=C/N1CCOCC1 | 2.28
